Data: PubChem BioAssay AID540317 (National Center for Advancing Translational Sciences (NCATS), 2011)
Hit rate of the full screen: of about 390,000 compounds, about 2,200 (0.56%) were called active. Inconclusive results, whose numbers are uncertain, are shown with a selection of clear calls. Calls come from the whole dose curve; as a rule, active = well fitted inhibition curve with a large enough effect; inconclusive = small, poorly fitted or top-dose-only effect; inactive = no such curve, though single readings can be large or run the other way. Potencies beside an inconclusive call are fits to weak or partial responses and may not hold up.

What follows are compounds tested against Chromobox protein homolog 1 (Homo sapiens) (UniProt P83916) (assay: HTS for Inhibitors of HP1-beta Chromodomain Interactions with Methylated Histone Tails). Conditions: AlphaScreen HP1-beta / biotin-H3K9me3 peptide binding; series mostly up to 114 µM.
Outline: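 AlphaScreen: HP1-beta (50 nM) preformed 30 min with biotin-H3(1-18)K9me3 peptide (50 nM) in PBS pH 7.4, 0.01% Tween-20. Compound added for 30 min at RT, then streptavidin donor/nickel chelate acceptor beads (10 ug/mL) for 30 min.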
Note: nearly all actives have a fitted effect of over 70% in size.
Potency is the fitted concentration of half-maximal effect; tags give direction and shape of the fitted curve.

UniProt P83916, sequence (P83916 whole entry, looked up): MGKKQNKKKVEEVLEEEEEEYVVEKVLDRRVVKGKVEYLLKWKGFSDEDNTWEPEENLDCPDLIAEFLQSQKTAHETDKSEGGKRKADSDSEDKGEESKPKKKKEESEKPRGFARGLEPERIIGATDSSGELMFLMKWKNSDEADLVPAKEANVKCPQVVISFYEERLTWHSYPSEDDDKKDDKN

| Structure (SMILES) | Potency |
| --- | --- |
| COC(=O)c1ccccc1NC(=O)c1cn(-c2ccc(C)c(C)c2)c(=O)c2ccccc12 | inconclusive: 25.1 µM [inhibitor, single point] |
| COc1ccccc1C1CC(=O)n2c(nc(-c3ccccc3)c2-c2ccccc2)S1 (centres undefined) | inconclusive: 17.8 µM [inhibitor, partial curve, poor fit] |
| O=C1c2cccc3c([N+](=O)[O-])ccc(c23)C(=O)N1c1ccc(Cl)cn1 | inconclusive: 44.7 µM [inhibitor, partial curve] |
| CCc1cc2c(NCc3ccco3)ncnc2s1 | inactive |
| CCN(CC)CCOC(=O)c1ccc(N/C=C(/C#N)c2nc(-c3ccc4c(c3)OCO4)cs2)cc1 | active: 31.6 µM |
| O=C(CCNc1ccc(Cc2ccncc2)cc1)c1cccc([N+](=O)[O-])c1 | inconclusive: 50.1 µM [inhibitor, partial curve] |
| CC(C)Cn1c(N)c(C(=O)COC(=O)c2c(O)c(Cl)cc(Cl)c2Cl)c(=O)n(C)c1=O | inactive |
| CC1CCN(C(=S)c2cccc([N+](=O)[O-])c2)CC1 | inconclusive: 25.1 µM [inhibitor, partial curve] |
| Cc1nnsc1C(=O)NNc1ccc(C(C)C)cc1 | inactive |
| CCOc1cc(CN2CCN(c3ccc(C(C)=O)cc3)CC2)ccc1OC | inconclusive: 14.1 µM [inhibitor, partial curve, poor fit] |
| COc1ccc(CCNC(=O)CCc2c(C)c3cc4c(C)c(C)oc4cc3oc2=O)cc1 | inactive |
| COc1cc(NC(=O)CN2C(=O)C(C)N(c3ccc(C)cc3)C2=O)cc(OC)c1 (centres undefined) | inconclusive: 89.1 µM [inhibitor, single point] |
| O=C(N/N=C/c1ccc(Cl)cc1)c1nc2ccc([N+](=O)[O-])cc2c(=O)[nH]1 | inconclusive: 10 µM [inhibitor, partial curve] |
| O=C(/C=C/c1ccc(-c2ccccc2[N+](=O)[O-])o1)c1ccco1 | active: 39.8 µM |
| O=C(c1ccc(OCCN2CCCCC2)cc1)c1c(-c2ccc(O)cc2)sc2cc(O)ccc12 | inconclusive: 35.5 µM [inhibitor, partial curve] |
| CCOC(=O)C1CCCN(CC(O)COCc2ccc3c(c2)OCO3)C1 (centres undefined) | inconclusive: 56.2 µM [inhibitor, partial curve, poor fit] |
| COc1ccc(NCC(=O)N/N=C/c2ccc3c(c2)OCCO3)cc1 | inactive |
| CCCOc1cccc(C(=O)Nc2cccc(NC(=O)c3ccco3)c2)c1 | inconclusive: 4.47 µM [inhibitor, full curve, poor fit] |
| NS(=O)(=O)c1ccc(N/C=C\C(=O)c2ccc(F)cc2)cc1 | inactive |
| COc1ccc2nc3oc(C(=O)NCc4ccccc4OC)cc3cc2c1 | inactive |
| Cc1cccc(-c2nc(S(=O)(=O)c3ccc(F)cc3)c(NCCCN3CCOCC3)o2)c1 | inconclusive: 70.8 µM [inhibitor, partial curve, poor fit] |
| Cc1cc(OCCCn2ccnc2)ccc1[N+](=O)[O-] | inconclusive: 14.1 µM [inhibitor, partial curve, poor fit] |
| CC1CCN(c2ccc(-c3nc(C(C)C)no3)cc2[N+](=O)[O-])CC1 | inactive |

| Structure (SMILES) | Potency |
| --- | --- |
| COc1ccccc1/C=C1\SC(=S)N(N2C(=O)CCCC2=O)C1=O | inconclusive: 15.8 µM [inhibitor, partial curve] |
| N#CCCN1CCN(C(=S)c2ccc(-c3cc(Cl)ccc3Cl)o2)CC1 | inconclusive: 10 µM [inhibitor, single point] |
| CCOC(=O)c1c(C)[nH]c(C(=O)N/N=C/c2cc([N+](=O)[O-])ccc2O)c1C | inactive |
| O=C(CCl)Nc1nc(-c2ccco2)c(-c2ccco2)s1 | inconclusive: 17.8 µM [inhibitor, partial curve, poor fit] |
| N=c1c2c(ncn1CCN1CCOCC1)Oc1ccc3ccccc3c1C2c1ccccc1 (centres undefined) | inactive |
| CN(CC(=O)Nc1ccccc1[N+](=O)[O-])Cc1ccc(Br)cc1 | inconclusive: 17.8 µM [inhibitor, full curve] |
| O=C(c1ccc(S(=O)(=O)NCC2CCCO2)cc1)N1CCN(c2ccccc2)CC1 (centres undefined) | inactive |
| CC1CCN(c2ccccc2NC(=S)NC(=O)c2cccs2)CC1 | inconclusive: 44.7 µM [inhibitor, partial curve] |
| COc1ccc(C2C3C=CCC(c4ccccc4)C3C(=O)N2Cc2ccccc2)cc1Cl (centres undefined) | inactive |
| O=C1/C(=C/c2ccc3c(c2)OCO3)CCC/C1=C\c1ccc2c(c1)OCO2 | active: 28.2 µM |
| O=C(Nc1cc([N+](=O)[O-])ccc1Cl)C(Sc1ccccc1)c1ccccc1 (centres undefined) | inconclusive: 25.1 µM [inhibitor, single point] |
| O=C1/C(=C\c2ccco2)CCC/C1=C\c1ccco1 | active: 44.7 µM |
| C=CCCC(=O)Nc1nc(C)c(-c2csc(Nc3ccc(Cl)cc3Cl)n2)s1 | inconclusive: 17.8 µM [inhibitor, full curve] |
| Cc1cc(-c2ccc(Cl)cc2)c(C#N)c(N)n1 | inactive |
| Cc1ccn2c(Nc3ccc4c(c3)OCCO4)c(-c3ccc(Cl)s3)nc2c1 | inconclusive: 28.2 µM [inhibitor, partial curve] |
| COc1ccccc1/C=C/C=N\N1CCN(Cc2ccccc2Cl)CC1 | inconclusive: 22.4 µM [inhibitor, full curve] |
| Cc1ccc(C(=O)N(Cc2ccc(N(C)C)cc2)Cc2ccco2)cc1 | inconclusive: 22.4 µM [inhibitor, full curve] |
| COc1cccc(/C=N/Nc2ccc(S(=O)(=O)Nc3ccccc3C(=O)O)cc2[N+](=O)[O-])c1O | inconclusive: 56.2 µM [inhibitor, partial curve, poor fit] |
| COc1ccc(Cn2c(C(=O)O)c(CNCCc3cc(OC)ccc3OC)c3ccc(C)cc32)cc1 | inactive |
| Cc1c(Cl)cccc1NS(=O)(=O)c1ccc2c(c1)C1C=CCC1C(c1ccc(C(=O)O)cc1)N2 (centres undefined) | active: 50.1 µM |
| Cc1ccc(/C=N\NC(=O)CNC(=O)C23CC4CC(CC(C4)C2)C3)o1 | inactive |
| CC(C)[C@H](NS(=O)(=O)c1ccc2c(c1)OCCO2)C(=O)OCC(=O)Nc1cc(Cl)ccc1Cl | inconclusive: 39.8 µM [inhibitor, single point] |
| CCN(CC)c1nc2c(c(=O)[nH]c(=O)n2C)n1CCOc1ccccc1 | inactive |

| Structure (SMILES) | Potency |
| --- | --- |
| COc1cccc(OC)c1NC(=O)CN1CCN(C)CC1 | inconclusive: 39.8 µM [inhibitor, partial curve] |
| Cc1cc2cc(CNC(=S)NCc3ccccc3)ccc2n1C | inconclusive: 44.7 µM [inhibitor, partial curve] |
| C/C(CCN1CCc2nc(-c3ccccc3)c(-c3ccccc3)cc2C1)=N\OC[C@@H](C)[C@H](OCc1ccccc1)C(C)C | inactive |
| S=C(NN=C1C2CC3CC(C2)CC1C3)Nc1ccccc1 | inconclusive: 28.2 µM [inhibitor, partial curve] |
| Oc1ccc(-c2csc(Nc3ccccn3)n2)cc1O | active: 14.1 µM |
| CCn1c2ccccc2c2cc(NC(=O)c3ccc(Br)o3)ccc21 | inconclusive: 15.8 µM [inhibitor, full curve] |
| O=S(=O)(Cc1ccccc1)N1CCN(c2ncccn2)CC1 | inactive |
| CCn1ccc2c(OCC(=O)Nc3ccccc3C(F)(F)F)cccc2c1=O | inactive |
| CCOC(=O)C1=C(C)NC(C)=C(C(=O)OCC)C1C(=O)OCC(=O)N1CCCCC1C (centres undefined) | inactive |
| CC1CN(C2CCN(C(=O)c3cccc(Cl)c3)CC2)CC(C)O1 (centres undefined) | inconclusive: 15.8 µM [inhibitor, full curve] |
| O=C(CSc1cccc2cccnc12)N1CCCC1 | inconclusive: 7.94 µM [inhibitor, full curve, poor fit] |
| Nc1ccccc1Nc1cc(-c2ccccc2)[nH]n1 | inconclusive: 50.1 µM [inhibitor, partial curve] |
| Cc1ccc(OCCn2c(=S)[nH]c3c(N)ncnc32)cc1 | inconclusive: 70.8 µM [inhibitor, partial curve] |
| CC(=O)Nc1ccc2c(COC(=O)CC3Sc4ccccc4NC3=O)cc(=O)oc2c1 (centres undefined) | inconclusive: 50.1 µM [inhibitor, partial curve, poor fit] |
| COc1ccc(NS(=O)(=O)c2ccc3[nH]c4c(c3c2)CCCC4)cc1OC | inconclusive: 56.2 µM [inhibitor, partial curve, poor fit] |
| Oc1ccc(CNCC2COc3ccccc3O2)cc1 (centres undefined) | inconclusive: 35.5 µM [inhibitor, partial curve, poor fit] |
| CC(OC(=O)[C@H](C)NC(=O)c1ccccc1Cl)C(=O)NCc1ccc2c(c1)OCO2 (some centres undefined) | inactive |
| Cc1ccc(C(=S)N2CCN(Cc3ccccc3)CC2)s1 | inconclusive: 12.6 µM [inhibitor, full curve] |
| COc1ccc(Nc2c3c(nc4ccc(NC(=O)c5ccc(F)cc5)cc24)CCCC3)cc1OC | inconclusive: 35.5 µM [inhibitor, partial curve, poor fit] |
| Cc1cc(/C=C2/NC(=O)N(c3ccccc3)C2=O)c(C)n1-c1cccnc1 | inconclusive: 50.1 µM [inhibitor, partial curve] |
| COc1cc(C)c(NC(=S)Nc2ccc(C)c(Cl)c2)cc1OC | inconclusive: 17.8 µM [inhibitor, full curve] |
| Cc1ccc(CCNc2ccc3ccccc3c2)cn1 | inconclusive: 39.8 µM [inhibitor, single point] |
| CCOc1ccc(-n2c(COc3ccc(C)cc3)nnc2SCC(N)=O)cc1 | inactive |
